pIC50: −log10 of the molar value. IC50 is the fitted dose that halves viability relative to control wells, and lower means more sensitive; a limit (>, <) means that the fit lies beyond the doses tested. The AUC spans the tested range (256-fold, ending at the top dose) of the same fit; the more sensitive the line, the further below 1. For some of these results: Any top dose called inferred was derived from the fitted curves, not read from the paper. For some of these results: Where an entry number is given, a second screen of the drug exists; the two often differ.
Legend:
[1] = compound: C=CCc1cccc(/C=N/NC(=O)CN2CCN(Cc3ccccc3)CC2)c1O [PAC-1]; experiment: Viability of human cancer cell lines after 72 h of drug (GDSC screen); conditions: top dose 2.56 µM
Method: (§1)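 Human cancer cell lines in 384-well plates, medium with 10% serum, drug for 72 h over a 256-fold dose range (nine 2-fold or five 4-fold steps up to the top dose). Adherent lines were fixed and stained with the nucleic acid dye Syto60, suspension lines read with resazurin; signal relative to control wells, capped at 0 and 100%. One two-parameter sigmoid per drug and line, fitted in a mixed model over all curves with the slope shared within a line.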

[2] = compound: NC(=O)[C@@H](CCC(F)(F)F)N(Cc1ccc(-c2ncon2)cc1F)S(=O)(=O)c1ccc(Cl)cc1 [BMS-708163]; experiment: as above; conditions: top dose inferred
Method: as §1

[3] = top dose 5 µM, screen: GDSC drug entry 1072

Row | Cell Line | AUC [1] | pIC50 [1] | AUC [2, 3] | pIC50 [2, 3] | AUC ([2]; screen: GDSC drug entry 205) | pIC50 ([2]; screen: GDSC drug entry 205)
1 | 22RV1 (prostate, adherent) | 0.943 | < 5.59 | 0.881 | < 5.30 | – | –
2 | 42-MG-BA (glioma, adherent) | 0.95 | < 5.59 | 0.963 | < 5.30 | – | –
3 | 201T (lung adenocarcinoma, adherent) | 0.911 | < 5.59 | 0.934 | < 5.30 | – | –
4 | 451Lu (melanoma, adherent) | 0.989 | < 5.59 | 0.984 | < 5.30 | – | –
5 | 639-V (bladder, adherent) | 0.991 | < 5.59 | 0.992 | < 5.30 | – | –
6 | 647-V (bladder, adherent) | 0.955 | < 5.59 | 0.983 | < 5.30 | – | –
7 | 769-P (kidney, adherent) | 0.788 | 5.91 | 0.959 | < 5.30 | – | –
8 | 786-0 (kidney, adherent) | 0.755 | 6.09 | 0.52 | 6.45 | – | –
9 | 5637 (bladder, adherent) | 0.948 | < 5.59 | 0.986 | < 5.30 | – | –
10 | 8305C (thyroid, adherent) | 0.885 | < 5.59 | 0.889 | < 5.30 | – | –
11 | 8505C (thyroid, adherent) | 0.836 | 5.74 | 0.985 | < 5.30 | – | –
12 | 23132-87 (stomach, adherent) | 0.935 | < 5.59 | 0.96 | < 5.30 | – | –
13 | A172 (glioma, adherent) | 0.978 | < 5.59 | 0.932 | < 5.30 | – | –
14 | A204 (rhabdomyosarcoma, adherent) | 0.952 | < 5.59 | 0.936 | < 5.30 | – | –
15 | A375 (melanoma, adherent) | 0.789 | 6.04 | 0.98 | < 5.30 | – | –
16 | A427 (non-small cell lung carcinoma, adherent) | 0.913 | < 5.59 | 0.985 | < 5.30 | – | –
17 | A431 (skin, adherent) | 0.906 | < 5.59 | 0.966 | < 5.30 | – | –
18 | A673 (rhabdomyosarcoma, adherent) | 0.989 | < 5.59 | 0.958 | < 5.30 | – | –
19 | A704 (kidney, adherent) | 0.916 | < 5.59 | 0.966 | < 5.30 | – | –
20 | A2058 (melanoma, adherent) | 0.99 | < 5.59 | 0.989 | < 5.30 | – | –
21 | A2780 (ovary, semi-adherent) | 0.906 | < 5.59 | 0.927 | < 5.30 | – | –
22 | ABC-1 (lung adenocarcinoma, adherent) | 0.974 | < 5.59 | 0.975 | < 5.30 | – | –

Row | Cell Line | AUC [1] | pIC50 [1] | AUC [2, 3] | pIC50 [2, 3] | AUC ([2]; screen: GDSC drug entry 205) | pIC50 ([2]; screen: GDSC drug entry 205)
23 | ACHN (kidney, adherent) | 0.848 | 5.64 | 0.976 | < 5.30 | – | –
24 | AGS (stomach, adherent) | 0.983 | < 5.59 | 0.984 | < 5.30 | – | –
25 | AN3-CA (endometrium, adherent) | 0.953 | < 5.59 | 0.985 | < 5.30 | – | –
26 | ASH-3 (thyroid, adherent) | 0.915 | < 5.59 | 0.986 | < 5.30 | – | –
27 | AU565 (breast, adherent) | 0.855 | 5.62 | 0.876 | < 5.30 | – | –
28 | AsPC-1 (pancreas, adherent) | 0.94 | < 5.59 | 0.881 | < 5.30 | – | –
29 | BCPAP (thyroid, adherent) | 0.934 | < 5.59 | 0.964 | < 5.30 | – | –
30 | BEN (non-small cell lung carcinoma, adherent) | 0.985 | < 5.59 | 0.986 | < 5.30 | – | –
31 | BFTC-905 (bladder, adherent) | 0.947 | < 5.59 | 0.963 | < 5.30 | – | –
32 | BFTC-909 (kidney, adherent) | 0.988 | < 5.59 | 0.963 | < 5.30 | – | –
33 | BHT-101 (thyroid, adherent) | 0.966 | < 5.59 | 0.912 | < 5.30 | – | –
34 | BHY (head and neck, adherent) | 0.961 | < 5.59 | 0.977 | < 5.30 | – | –
35 | BICR10 (head and neck, adherent) | 0.98 | < 5.59 | 0.985 | < 5.30 | – | –
36 | BICR31 (head and neck, adherent) | 0.987 | < 5.59 | – | – | – | –
37 | COLO-792 (melanoma, adherent) | 0.97 | < 5.59 | – | – | – | –
38 | Caov-3 (ovary, adherent) | 0.991 | < 5.59 | – | – | – | –
39 | HCC-78 (lung adenocarcinoma, adherent) | 0.921 | < 5.59 | – | – | – | –
40 | HT-1376 (bladder, adherent) | 0.947 | < 5.59 | – | – | – | –
41 | LCLC-97TM1 (large cell lung carcinoma, adherent) | 0.831 | 5.73 | – | – | – | –
42 | LoVo (large intestine, adherent) | 0.98 | < 5.59 | – | – | – | –
43 | MDA-MB-330 (breast, adherent) | 0.978 | < 5.59 | – | – | – | –
44 | NCI-H810 (large cell lung carcinoma, adherent) | 0.948 | < 5.59 | – | – | – | –

Row | Cell Line | AUC [1] | pIC50 [1] | AUC [2, 3] | pIC50 [2, 3] | AUC ([2]; screen: GDSC drug entry 205) | pIC50 ([2]; screen: GDSC drug entry 205)
45 | NCI-H2228 (lung adenocarcinoma, adherent) | 0.93 | < 5.59 | – | – | – | –
46 | NCI-H2342 (lung adenocarcinoma, adherent) | 0.911 | < 5.59 | – | – | – | –
47 | SISO (cervix, adherent) | 0.983 | < 5.59 | – | – | – | –
48 | SNU-475 (liver, adherent) | 0.984 | < 5.59 | – | – | – | –
49 | SNU-C2B (large intestine, adherent) | 0.975 | < 5.59 | – | – | – | –
50 | SW756 (cervix, adherent) | 0.984 | < 5.59 | – | – | – | –
51 | VMRC-RCW (kidney, adherent) | 0.902 | < 5.59 | – | – | – | –
52 | WM1552C (melanoma, adherent, top dose 10.24 µM) | – | – | – | – | 0.985 | < 4.99
53 | WM-115 (melanoma, adherent, top dose 10.24 µM) | – | – | – | – | 0.957 | < 4.99
54 | WSU-DLCL2 (B-cell lymphoma, suspension, top dose 10.24 µM) | – | – | – | – | 0.992 | < 4.99
55 | WSU-NHL (lymphoid neoplasm, suspension, top dose 10.24 µM) | – | – | – | – | 0.99 | < 4.99
56 | YAPC (pancreas, adherent, top dose 10.24 µM) | – | – | – | – | 0.984 | < 4.99
57 | YH-13 (glioma, adherent) | – | – | 0.985 | < 5.30 | – | –
58 | YH-13 (glioma, adherent, top dose 10.24 µM) | – | – | – | – | 0.978 | < 4.99
59 | YKG-1 (glioma, adherent) | – | – | 0.98 | < 5.30 | – | –
60 | YKG-1 (glioma, adherent, top dose 10.24 µM) | – | – | – | – | 0.985 | < 4.99
61 | YMB-1-E (breast, adherent, top dose 10.24 µM) | – | – | – | – | 0.979 | < 4.99
62 | YT (lymphoid neoplasm, suspension, top dose 10.24 µM) | – | – | – | – | 0.965 | < 4.99
63 | ZR-75-30 (breast, adherent) | – | – | 0.982 | < 5.30 | – | –
64 | huH-1 (liver, adherent, top dose 10.24 µM) | – | – | – | – | 0.978 | < 4.99
65 | no-10 (glioma, adherent, top dose 10.24 µM) | – | – | – | – | 0.98 | < 4.99
66 | no-11 (glioma, adherent, top dose 10.24 µM) | – | – | – | – | 0.981 | < 4.99

— the supplement of paper PMC4967469
